# According to PubChem BioAssay AID1458 (National Center for Advancing Translational Sciences (NCATS), 2008):
# Among all 210,000 compounds or so, about 5,900 (2.8%) were called active. Inconclusive results, whose numbers are uncertain, are shown with a selection of clear calls. The call rests on the fitted dose curve; in most records, active means well fitted activation curve with a large enough effect; inconclusive means small, poorly fitted or top-dose-only effect; inactive means no such curve, though single readings can be large or run the other way. Where the call is inconclusive, the potency comes from a doubtful curve fit.
# Experiment: qHTS Assay for Enhancers of SMN2 Splice Variant Expression; further: nearly all actives have a fitted effect of over 55% in size; on activity change, positive = activation: % of control where 0% means no effect
# Settings: HEK293 SMN2-luciferase splicing reporter, luminescence, 30-36 h; activity change, positive = activation: at 46.1 µM (top of the series)
# Method in brief: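 HEK293 cells carry an SMN2 […]–luciferase reporter in which exon 7 inclusion puts luciferase in frame. Cells were plated 10-12 h before compound addition, then incubated 30-36 h at 37C. ONE-Glo luminescence was read; sodium butyrate at 4.5 mM final served as control.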
# Potency means the concentration at half of the fitted maximal effect; tags describe the fitted curve by direction and shape.
SMILES,Potency,"activity change, positive = activation"
CCOC(=O)c1c(CN2CCOCC2)n(C)c2cc(Br)c(O)c(CN(C)C)c12,"inconclusive: 0.01 µM [activator, full curve, poor fit]",
Cc1ccc2oc(=O)n(CCCOc3ccccc3Cl)c2c1,"inconclusive: 15.8 µM [activator, single point]",
O=S(=O)(Cc1cc(-c2ccccc2Cl)no1)c1ccccc1,"inconclusive: 12.6 µM [activator, partial curve]",
COC(=O)c1cc(Br)c(=O)n(CCN2CCOCC2)c1,"inconclusive: 0.316 µM [activator, full curve, poor fit]",
CC(=O)c1ccc(S(=O)(=O)Nc2ccc(-c3ccc4nnc(C)n4n3)cc2)cc1,"inconclusive: 12.6 µM [activator, partial curve, poor fit]",
O=C(CSc1nc(-c2ccc(F)cc2)[nH]c1-c1ccc(F)cc1)Nc1ccc2c(c1)OCO2,inactive,
CCn1c(=O)c(C(=O)NCc2ccc(OC)cc2)c(O)c2ccccc21,"inconclusive: 0.224 µM [activator, full curve, poor fit]",
FC(F)(F)c1ccc(NC(=S)NCc2ccccc2)cc1,"inconclusive: 2.82 µM [activator, full curve]",
Cc1cccc2cc(CN(CC3CCCO3)C(c3nnnn3Cc3ccco3)C(C)C)c(=O)[nH]c12 (stereo not drawn),inactive,
CC(=O)N1N=C(c2c(-c3ccccc3)c3cc(C)ccc3[nH]c2=O)CC1c1ccco1 (stereo not drawn),inactive,
CCOC(=O)c1ccccc1NC(=O)Nc1cc2c(cc1N1CCCC1)n(C)c(=O)n2C,inactive,
CCc1nc(-c2ccc(-c3ccc(OC)cc3)nc2OC)no1,"inconclusive: 14.1 µM [activator, partial curve]",
COc1ccc(C(=O)Nc2cc(-c3nc4ccccc4s3)ccc2OC)cc1,"inconclusive: 35.5 µM [activator, single point]",
CC/C(=N\NC(=S)Nc1cccc(C)c1)c1ccccc1,"inconclusive: 12.6 µM [activator, single point]",
C/C(=N\NC(=O)c1ccccc1)c1cccc(Br)c1,"inconclusive: 35.5 µM [activator, single point]",
COC(=O)N/N=C/c1cn(CCCOc2ccc(C)cc2)c2ccccc12,"inconclusive: 2.51 µM [activator, partial curve]",
Cn1c(NCCN2CCOCC2)nc2c1c(=O)n(Cc1cccc(Cl)c1)c(=O)n2C,"inconclusive: 3.16 µM [activator, partial curve]",
O=c1c2ccccc2nnn1CSc1nnc(-c2ccc3c(c2)OCO3)o1,"inconclusive: 35.5 µM [activator, single point]",
COC(=O)c1ccc(NC(=O)CCc2c(C)nc3c(c(C)nn3C(C)(C)C)c2C)cc1,inactive,
Cc1ccc(C)c(N2CCN(C(=O)c3cc4c(=O)oc5ccccc5c4s3)CC2)c1,inactive,
CCN=C1SC(CC(=O)NCCc2ccc(OC)cc2)C(=O)N1CC (stereo not drawn),"inconclusive: 3.98 µM [activator, single point]",
CS[C@]12C(=O)C[C@]3(C)[C@@H](CC[C@@]3(O)C(=O)CO)[C@@H]1CCC1=CC(=O)CC[C@]12C,,inactive: -6.67% [at 9.22 µM]
COc1ccc(SCC(=O)Nc2ccc(N3CCN(C)CC3)c(F)c2)cc1,inactive,
CCOCc1nnc(NC(=O)c2ccco2)s1,"inconclusive: 0.0447 µM [activator, full curve, poor fit]",
CCOC(=O)C(C(=O)c1ccccc1)C1CC(C)NC(=S)N1 (stereo not drawn),"inconclusive: 0.0224 µM [activator, full curve, poor fit]",

SMILES,Potency,"activity change, positive = activation"
CC(C)C(=O)Nc1cccc(NC(=O)c2cc3ccccc3o2)c1,active: 17.8 µM,
Cc1cc(C)c(C2C(C#N)=C(N)Oc3n[nH]c(C)c32)cc1CN1CCCC1 (stereo not drawn),"inconclusive: 0.0355 µM [activator, full curve, poor fit]",
C/C(=N\O)C(C)(C)NC(=O)Nc1ccc(Cl)cc1,"inconclusive: 6.31 µM [activator, partial curve]",
O=C(N/N=C/c1ccc(Sc2ccccn2)o1)c1cc2ccccc2cc1O,"inconclusive: 17.8 µM [activator, single point]",
Nc1nnc(SCc2ccccc2F)n1-c1ccccc1,"inconclusive: 25.1 µM [activator, single point]",
Cc1nn(C)cc1CNC(=O)c1cc2n(n1)C(C(F)(F)F)CC(c1cccs1)N2 (stereo not drawn),inactive,
Cc1cc(C)c(NC(=O)Cn2c(=O)n(CCC(=O)NCc3ccccc3Cl)c(=O)c3sccc32)c(C)c1,inactive,
O=C(Nc1ccc2c(c1)C(=O)NC2=O)c1ccc(S(=O)(=O)N2CCCC2)cc1,inactive,
CCC(C)NC(=O)c1cn(C)c(=O)c2cc(OC)c(OC)cc12 (stereo not drawn),"inconclusive: 0.0032 µM [activator, full curve, poor fit]",
C#CCSc1nnc(-c2sc(-c3ccccc3)nc2C)n1C,inactive,
COc1ccc(-c2nc3ccc([N+](=O)[O-])cc3o2)cc1,active: 11.2 µM,
CCCC(CCC(=O)NC1CCCCC1)C(=O)O (stereo not drawn),"inconclusive: 12.6 µM [activator, partial curve, poor fit]",
Cc1ccc(Nc2nc(N)c([N+](=O)[O-])c(N3CCOCC3)n2)cc1,"inconclusive: 5.01 µM [activator, partial curve]",
Cc1cc(C)n2nc(C(=O)Nc3nccs3)nc2n1,"inconclusive: 20 µM [activator, single point]",
CCCCC1=CC2=CC(=O)C(C)(OC(=O)CC)C(=O)C2=CN1Cc1ccco1 (stereo not drawn),"inconclusive: 3.55 µM [activator, partial curve]",
CCc1c(C(=O)NCCc2ccc(OC)c(OC)c2)[nH]c(C)c1C(C)=O,inactive,
Cc1ccc(C)c(OCCCn2c(-c3ccc(Cl)cc3)nc3ccccc3c2=O)c1,inactive,
CCOC(=O)CCCn1ncn2c(cc3occc32)c1=O,inactive,
COc1cc(-c2nnc3sc(-c4cccs4)nn23)cc(OC)c1OC,"inconclusive: 10 µM [activator, partial curve]",
O=C(CCc1ccccc1)Nc1ccc2c(c1)OCCO2,active: 12.6 µM,
COc1ccc(-n2nc(C(=O)NCC(=O)NCc3ccc(F)cc3)c3ccccc3c2=O)c(OC)c1,inactive,
CCOC(=O)C1=C(O)CCn2c1nc1ccccc12,"inconclusive: 0.0794 µM [activator, full curve, poor fit]",
CCCCC(=O)Nc1cccc(NC(=O)c2ccc(Br)o2)c1,active: 35.5 µM,
CN1CCc2c(sc3c2c(NCc2ccco2)nc2nnnn23)C1,"inconclusive: 0.112 µM [activator, full curve, poor fit]",
CCn1nc2cc(C(=O)NCCc3cccs3)ccc2c1OC,"inconclusive: 2.82 µM [activator, partial curve]",

SMILES,Potency,"activity change, positive = activation"
COC(=O)C(C)NC(=O)c1ccc(C(C)(C)C)cc1 (stereo not drawn),"inconclusive: 4.47 µM [activator, full curve, poor fit]",
Cc1cc(C(=O)CSc2ncccn2)c(C)n1-c1cccc(F)c1,"inconclusive: 31.6 µM [activator, single point]",
Cc1ccc(NC(=O)CN(C)CC(=O)Nc2cccc(F)c2)cc1S(=O)(=O)N1CCCCCC1,inactive,
CC(=O)Nc1nonc1-c1nc2ccccc2n1Cc1ccccc1,"inconclusive: 35.5 µM [activator, single point]",
Cc1ccc(C(=O)Nc2cccc(C(=O)O)c2)cc1,active: 1 µM,
CSc1nnc2c(n1)c(C)nn2-c1ccc(C)cc1,"inconclusive: 35.5 µM [activator, single point]",
COc1ccc(S(=O)(=O)Nc2cc(-c3cn4cccc(C)c4n3)ccc2C)cc1C,inactive,
Cc1ccc(CSc2nnc(CNc3ccc(F)cc3)o2)cc1,inactive,
COc1ccc(C2N(C(=O)c3ccccc3)CCN2C(=O)c2ccccc2)cc1,"inconclusive: 0.224 µM [activator, full curve]",
C=CCNC(=O)C1CC(=O)N(c2ccc(OCC(=O)NCc3ccccc3)cc2)C1 (stereo not drawn),"inconclusive: 35.5 µM [activator, partial curve, poor fit]",
CCOC(=O)c1sc2ncn(/N=C/c3ccc(O)c(OC)c3)c(=O)c2c1C,inactive,
Cc1ccc(C2(c3ccc(C)cc3)NC(=O)N(Cc3c(C)noc3C)C2=O)cc1,"inconclusive: 10 µM [activator, partial curve]",
COC(=O)c1ccccc1NC(=O)CSc1nnc(CNS(=O)(=O)c2ccc(C)cc2)n1C,inactive,
CCC(=O)NC(=Nc1nc2ccccc2s1)NC(=O)CC,active: 10 µM,
CCOc1ccc(C(=O)NC2=NCCS2)cc1,active: 14.1 µM,
CN(C)c1nc2n(c(=S)n1)CCS2,"inconclusive: 11.2 µM [activator, partial curve, poor fit]",
NC(=O)C1CCN(C(=O)OCc2ccccc2)CC1,"inconclusive: 2 µM [activator, partial curve]",
COc1ncc2nc(-c3cccs3)c(=O)n(-c3ccccc3)c2n1,inactive,
CC(=O)N1CC=CC1(CC(C)C)C(=O)NCc1ccccn1 (stereo not drawn),inactive,
Cc1ccc(NC(=O)c2cccc(S(C)(=O)=O)c2)cc1,"inconclusive: 10 µM [activator, partial curve, poor fit]",
O=[N+]([O-])c1cc(N(CCO)CCO)ccc1NCCO,inactive,
CC(C)NC(=O)Cn1c(=O)c2c(ncn2Cc2ccccc2)n(Cc2ccccc2)c1=O,"inconclusive: 0.0158 µM [activator, full curve, poor fit]",
COc1cccc(C(=O)Nc2nc(-c3ccc(S(=O)(=O)N4CCOCC4)cc3)cs2)c1,inactive,
